Substitutions are numbered along the chain they refer to; changes in the protein carry UniProt numbers. This is one part of the list.

Sequences and labels used below:
B1: CUCGAUG (DNA:RNA)
RNA: GGGAGACCGGAAUUCAGAUUGUCCCUCGAUGUUAAAUCCCGUCGUAGCCACCA
DNA 1: CAATCTGAATTCCGGTCTCCC
DNA 2: TGGTGGCTACGACGGGATT
B2: UCCGUCU (DNA:RNA)
RNA: B1 RNA with C25U, U26C, A29U, U30C, G31U
DNA 1: CAATCTGAATTCCGGTCTCCC
DNA 2: TGGTGGCTACGACGGGATT
B3: ACGUUAU (DNA:RNA)
RNA: GGGAGACCGGAAUUCAGAUUGUCCACGUUAUUUAAAUCCCGUCGUAGCCACCA
DNA 1: CAATCTGAATTCCGGTCTCCC
DNA 2: TGGTGGCTACGACGGGATT
B4: AAAUCCC (DNA:RNA)
RNA: B3 RNA with C26A, G27A, U29C, A30C, U31C
DNA 1: CAATCTGAATTCCGGTCTCCC
DNA 2: TGGTGGCTACGACGGGATT
B5: ACUUAGA (DNA:RNA)
RNA: B3 RNA with G27U, U29A, A30G, U31A
DNA 1: CAATCTGAATTCCGGTCTCCC
DNA 2: TGGTGGCTACGACGGGATT
B6: UCAUAGG (DNA:RNA)
RNA: B3 RNA with A25U, G27A, U29A, A30G, U31G
DNA 1: CAATCTGAATTCCGGTCTCCC
DNA 2: TGGTGGCTACGACGGGATT
B7: GGGUCUU (DNA:RNA)
RNA: B3 RNA with A25G, C26G, U29C, A30U
DNA 1: CAATCTGAATTCCGGTCTCCC
DNA 2: TGGTGGCTACGACGGGATT
B8: CCAAGAA (DNA:RNA)
RNA: B3 RNA with A25C, G27A, U28A, U29G, U31A
DNA 1: CAATCTGAATTCCGGTCTCCC
DNA 2: TGGTGGCTACGACGGGATT
B9: AGAAGAA (DNA:RNA)
RNA: B3 RNA with C26G, G27A, U28A, U29G, U31A
DNA 1: CAATCTGAATTCCGGTCTCCC
DNA 2: TGGTGGCTACGACGGGATT
B10: AAUAGCC (DNA:RNA)
RNA: B3 RNA with C26A, G27U, U28A, U29G, A30C, U31C
DNA 1: CAATCTGAATTCCGGTCTCCC
DNA 2: TGGTGGCTACGACGGGATT
B11: UGCGUAC (DNA:RNA)
RNA: B3 RNA with A25U, C26G, G27C, U28G, U31C
DNA 1: CAATCTGAATTCCGGTCTCCC
DNA 2: TGGTGGCTACGACGGGATT
B12: CACACUC (DNA:RNA)
RNA: B1 RNA with U26A, G28A, A29C, G31C
DNA 1: CAATCTGAATTCCGGTCTCCC
DNA 2: TGGTGGCTACGACGGGATT
B13: UAGAAAC (DNA:RNA)
RNA: B3 RNA with A25U, C26A, U28A, U29A, U31C
DNA 1: CAATCTGAATTCCGGTCTCCC
DNA 2: TGGTGGCTACGACGGGATT
B14: UGACGUA (DNA:RNA)
RNA: B1 RNA with C25U, U26G, C27A, G28C, A29G, G31A
DNA 1: CAATCTGAATTCCGGTCTCCC
DNA 2: TGGTGGCTACGACGGGATT
B15: UGAUUUG (DNA:RNA)
RNA: B3 RNA with A25U, C26G, G27A, A30U, U31G
DNA 1: CAATCTGAATTCCGGTCTCCC
DNA 2: TGGTGGCTACGACGGGATT
B16: UUACAAC (DNA:RNA)
RNA: B1 RNA with C25U, C27A, G28C, U30A, G31C
DNA 1: CAATCTGAATTCCGGTCTCCC
DNA 2: TGGTGGCTACGACGGGATT
B17: GUGAGCA (DNA:RNA)
RNA: B3 RNA with A25G, C26U, U28A, U29G, A30C, U31A
DNA 1: CAATCTGAATTCCGGTCTCCC
DNA 2: TGGTGGCTACGACGGGATT
B18: GCUUUGG (DNA:RNA)
RNA: B3 RNA with A25G, G27U, A30G, U31G
DNA 1: CAATCTGAATTCCGGTCTCCC
DNA 2: TGGTGGCTACGACGGGATT
B19: UACGUCA (DNA:RNA)
RNA: B1 RNA with C25U, U26A, A29U, U30C, G31A
DNA 1: CAATCTGAATTCCGGTCTCCC
DNA 2: TGGTGGCTACGACGGGATT
B20: AAUACGA (DNA:RNA)
RNA: B3 RNA with C26A, G27U, U28A, U29C, A30G, U31A
DNA 1: CAATCTGAATTCCGGTCTCCC
DNA 2: TGGTGGCTACGACGGGATT
B21: GGUUACA (DNA:RNA)
RNA: B3 RNA with A25G, C26G, G27U, U29A, A30C, U31A
DNA 1: CAATCTGAATTCCGGTCTCCC
DNA 2: TGGTGGCTACGACGGGATT
B22: UACUCUA (DNA:RNA)
RNA: B1 RNA with C25U, U26A, G28U, A29C, G31A
DNA 1: CAATCTGAATTCCGGTCTCCC
DNA 2: TGGTGGCTACGACGGGATT
B23: UAGUGUG (DNA:RNA)
RNA: B3 RNA with A25U, C26A, U29G, A30U, U31G
DNA 1: CAATCTGAATTCCGGTCTCCC
DNA 2: TGGTGGCTACGACGGGATT
B24: AACCCGC (DNA:RNA)
RNA: B3 RNA with C26A, G27C, U28C, U29C, A30G, U31C
DNA 1: CAATCTGAATTCCGGTCTCCC
DNA 2: TGGTGGCTACGACGGGATT
B25: UGUGGAC (DNA:RNA)
RNA: B3 RNA with A25U, C26G, G27U, U28G, U29G, U31C
DNA 1: CAATCTGAATTCCGGTCTCCC
DNA 2: TGGTGGCTACGACGGGATT
B26: AAAGAUU (DNA:RNA)
RNA: B1 RNA with C25A, U26A, C27A, G31U
DNA 1: CAATCTGAATTCCGGTCTCCC
DNA 2: TGGTGGCTACGACGGGATT
B27: UGUGGCG (DNA:RNA)
RNA: B1 RNA with C25U, U26G, C27U, A29G, U30C
DNA 1: CAATCTGAATTCCGGTCTCCC
DNA 2: TGGTGGCTACGACGGGATT
B28: UACGCAU (DNA:RNA)
RNA: B3 RNA with A25U, C26A, G27C, U28G, U29C
DNA 1: CAATCTGAATTCCGGTCTCCC
DNA 2: TGGTGGCTACGACGGGATT
B29: AACUUCG (DNA:RNA)
RNA: B3 RNA with C26A, G27C, A30C, U31G
DNA 1: CAATCTGAATTCCGGTCTCCC
DNA 2: TGGTGGCTACGACGGGATT
B30: CAGUUCC (DNA:RNA)
RNA: B3 RNA with A25C, C26A, A30C, U31C
DNA 1: CAATCTGAATTCCGGTCTCCC
DNA 2: TGGTGGCTACGACGGGATT
B31: GAAUCUC (DNA:RNA)
RNA: B3 RNA with A25G, C26A, G27A, U29C, A30U, U31C
DNA 1: CAATCTGAATTCCGGTCTCCC
DNA 2: TGGTGGCTACGACGGGATT

This assay addresses T1, RBFOX1 RRM RbFoxmut (Fox-RRM*) (Homo sapiens, UniProt Q9NWB1 109-208, R118D;E147R;N151S;E152T).
T1 sequence: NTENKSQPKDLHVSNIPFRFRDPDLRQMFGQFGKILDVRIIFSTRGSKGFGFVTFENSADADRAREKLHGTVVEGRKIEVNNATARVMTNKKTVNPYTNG
Put plainly: EMSA; HiTS-Eq, 1 nM pool, 10 min; buffer printed only for the single-RNA assays: 10 mM Tris pH 7.5, 150 mM NaCl, 3.4 mM EDTA, 0.001% NP-40, 30 C. The following applies: tags: His6 N-terminal (pET28a); label: 5' 32P. In short, it runs like this:
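Purified wild-type or mutant RbFox RRM at increasing concentrations was equilibrated with 1 nM of 5′-radiolabelled RNA carrying 7 randomized nucleotides for 10 min in 50 µL. Unbound RNA was separated by 8% native PAGE and sequenced. Relative association constants came from read-count changes of each RNA species compared with the control reaction, normalised to the cognate motif.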
For B1, the binding signal was 0.136 KA relative to UGCAUGU. As for B2, the binding signal is 0.0831 KA relative to UGCAUGU. With B3 the figure was 0.133 KA relative to UGCAUGU; with B4, 0.0603 KA relative to UGCAUGU; with B5, 0.174 KA relative to UGCAUGU.

For the molecule B6, the binding signal is 0.0917 KA relative to UGCAUGU. With B7 the figure was 0.0856 KA relative to UGCAUGU; with B8, 0.112 KA relative to UGCAUGU.

As to B9, the binding signal is 0.125 KA relative to UGCAUGU. With B10 the figure was 0.0767 KA relative to UGCAUGU; with B11, 0.133 KA relative to UGCAUGU. Under B12 stands 0.0347 KA relative to UGCAUGU. Under B13 stands 0.0822 KA relative to UGCAUGU. Consider B14, for which the binding signal was 0.138 KA relative to UGCAUGU. Under B15 stands 0.168 KA relative to UGCAUGU; under B16, 0.0707 KA relative to UGCAUGU. With B17 the figure was 0.163 KA relative to UGCAUGU; with B18, 0.115 KA relative to UGCAUGU; with B19, 0.0951 KA relative to UGCAUGU. With B20 the figure was 0.069 KA relative to UGCAUGU; with B21, 0.0832 KA relative to UGCAUGU; with B22, 0.115 KA relative to UGCAUGU. As for B23, the binding signal is 0.21 KA relative to UGCAUGU. Under B24 stands 0.0881 KA relative to UGCAUGU; under B25, 0.0671 KA relative to UGCAUGU. With B26 the figure was 0.0888 KA relative to UGCAUGU; with B27, 0.174 KA relative to UGCAUGU; with B28, 0.0843 KA relative to UGCAUGU. With B29 the figure was 0.09 KA relative to UGCAUGU; with B30, 0.113 KA relative to UGCAUGU; with B31, 0.156 KA relative to UGCAUGU.

Values taken from publication PMC9911399, “Two distinct binding modes provide the RNA-binding protein RbFox with extraordinary sequence specificity”.
